The campaign covered roughly 220,000 compounds. About 2,300 (1%) were called active. This list was built around the results that the source calls inconclusive (neither active nor inactive); the mix of calls is not that of the screen. Calls come from the whole dose curve; as a rule, active = well fitted inhibition curve with a large enough effect; inconclusive = small, poorly fitted or top-dose-only effect, or effect the other way; inactive = no such curve, though single readings can be large or run the other way. No potency is given beside an inconclusive call; the fits are too rough.
Biological target: Neuropeptide S receptor (Homo sapiens) (UniProt Q6W5P4)
Sequence of UniProt Q6W5P4 (Q6W5P4 whole entry, looked up): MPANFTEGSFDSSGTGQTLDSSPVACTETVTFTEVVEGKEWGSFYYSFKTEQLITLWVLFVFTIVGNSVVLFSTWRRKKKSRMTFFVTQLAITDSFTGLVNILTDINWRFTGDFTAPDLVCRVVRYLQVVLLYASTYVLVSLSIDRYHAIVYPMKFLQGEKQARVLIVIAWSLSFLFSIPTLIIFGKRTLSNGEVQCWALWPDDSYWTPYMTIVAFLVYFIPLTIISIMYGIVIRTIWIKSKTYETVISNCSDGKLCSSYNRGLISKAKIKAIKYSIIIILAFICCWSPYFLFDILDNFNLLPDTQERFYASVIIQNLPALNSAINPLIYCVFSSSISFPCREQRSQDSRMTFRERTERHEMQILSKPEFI
Assay: qHTS Assay for Antagonists of the Neuropeptide S Receptor: cAMP Signal Transduction; note: nearly all actives have a fitted effect of over 50% in size
Conditions: CHO-NPSR cells, cAMP TR-FRET, antagonist mode; series mostly up to 38.3 µM
Potency is the fitted concentration of half-maximal effect; tags give direction and shape of the fitted curve.

SMILES	Potency
CCCNC(=O)c1ccc2c(=O)n3c(-c4ccc(C)cc4)csc3nc2c1	inconclusive [inhibitor, single point]
CCOC(=O)N1CCN(c2cc(NCCC(=O)O)c3c4c(onc24)-c2ccccc2C3=O)CC1	active: 10 µM
N#Cc1nc(COc2ccc(Br)cc2)oc1N1CCCC1	inconclusive [inhibitor, single point]
C[C@@H](C(=O)Nc1ccc2ccccc2c1)[C@H]1C[C@]1(C)[C@H](NC(=O)c1cnccn1)c1ccccc1	inactive
CCOc1cccc2sc(N(CCCN(C)C)C(=O)c3ccc(S(=O)(=O)N(C)c4ccccc4)cc3)nc12	active: 10 µM
Cc1cccc(NC(=O)c2cc3n(n2)C(C(F)(F)F)CC(c2ccc4c(c2)OCO4)N3)c1 (configuration not stated)	inconclusive [inhibitor, single point]
COc1ccc2cc(CN(Cc3ccco3)Cc3nnnn3C3CCCCC3)c(=O)[nH]c2c1	inconclusive [inhibitor, single point]
Cc1ccc(OCCOc2ccc(Br)cc2)c([N+](=O)[O-])n1	inactive
Cc1cc(O)ccc1N/C=C1\CCCC1=O	inactive
CNc1cc(N2CCCC2)ccc1[N+](=O)[O-]	inactive
Clc1cccc(Nc2nc(-c3ccncc3)cs2)c1	inactive
O=C(CSc1nnc(-c2ccc(Br)cc2)o1)Nc1cccc2ccccc12	inconclusive [inhibitor, single point]
O=C(COc1ccccc1)N1CCc2ccccc21	inactive
Clc1ccc(Cn2c(-c3cccnc3Cl)nc3ccccc32)c(Cl)c1	inconclusive [inhibitor, partial curve]
CN(C)c1nc(N2CCN(c3ccc(F)cc3)CC2)c(C#N)c(=O)o1	inconclusive [activator, full curve, poor fit]
COc1ccc2c(c1OC)C(=O)OC2Nc1nc(-c2ccccc2)cs1 (configuration not stated)	inconclusive [inhibitor, partial curve]
Cc1cc2cc(CN(CCCN3CCOCC3)C(=O)NC3CCCCC3)c(=O)[nH]c2cc1C	inconclusive [inhibitor, full curve, poor fit]
CCOc1ccc(/C=C2\SC(=S)NC2=O)cc1OC	inconclusive [activator, partial curve]
Cc1ccc(NS(=O)(=O)c2cc(NC(=O)C(C)Oc3ccccc3)ccc2C)c(C)c1 (configuration not stated)	inconclusive [inhibitor, single point]
Cc1ccccc1NC(=O)OCc1cccnc1Oc1ccc(Cl)cc1	inconclusive [inhibitor, single point]
Cc1cc(N=Cc2c(O)n(-c3ccc4c(c3)OCO4)c(=O)c3ccccc23)ccn1	inconclusive [inhibitor, single point]
COc1ccc(S(=O)(=O)N2CCCCCC2)cc1N(C)S(=O)(=O)c1ccccc1	inconclusive [inhibitor, single point]
CCC(=O)OCCNc1cc(Sc2nc3ccccc3[nH]2)c2nonc2c1[N+](=O)[O-]	inconclusive [inhibitor, single point]
COc1ccccc1-c1cc(C(F)(F)F)nc(S(=O)(=O)CCCC(=O)NC(C)C)n1	inconclusive [inhibitor, single point]

SMILES	Potency
CNC(=O)c1sccc1-n1cccc1	inactive
COc1ccc(OC)c(NC=C2C(=O)OC3(CCCCC3)OC2=O)c1	inconclusive [inhibitor, partial curve]
O=C(c1ccc(Cl)cc1)N1CCC(O)(CSc2ccc(Cl)cc2Cl)CC1	inconclusive [inhibitor, single point]
C=CCN1C(=O)C(Cc2ccc(SC(F)F)cc2)SC1=Nc1ccc(C(=O)O)cc1 (configuration not stated)	inactive
O=[N+]([O-])c1ccc(Sc2cccc3cccnc23)c([N+](=O)[O-])c1	active: 3.16 µM
COc1ccc(C(=O)On2c(-c3ccc(Br)cc3)nc3ccccc3c2=O)cc1	inconclusive [inhibitor, single point]
Cc1csc(NC(=O)CSc2nnc(-c3ccoc3C)n2CCc2ccccc2)n1	inconclusive [inhibitor, single point]
O=C(Nc1cccnc1)c1cccc(S(=O)(=O)N2CCc3ccccc32)c1	inactive
COc1ccccc1N1CCN(C(=O)CCn2c(=O)[nH]c3ccsc3c2=O)CC1	inconclusive [inhibitor, partial curve]
Cc1onc(-c2c(Cl)cccc2Cl)c1C(=O)N1CCCc2ccccc21	inconclusive [inhibitor, single point]
CN(C)c1ccc(/C=N/NC(=S)NCc2ccccc2)cc1	inactive
CCCn1c(N2CCN(Cc3ccc(Cl)cc3)CC2)nc2ccccc21	inconclusive [activator, partial curve]
COc1ccc2c(c1)CCc1c(C(=O)NCCN3CCOCC3)noc1-2	inactive
COc1ccc(NS(=O)(=O)c2cccc(C(=O)N/N=C/c3ccc4c(c3)OCCO4)c2)cc1	inactive
O=S(=O)(c1ccc(N2CCN(c3ccc(F)cc3)CC2)cc1)N1CCCC1	inactive
O=C(NCc1ccccn1)c1cccs1	inactive
Nc1c(NCc2ccccc2)c(=O)[nH]c(=O)n1Cc1ccccc1	inconclusive [activator, partial curve, poor fit]
COC(=O)c1cc(OC)c(OC)cc1NC(=S)Nc1cc(Cl)ccc1OC	inactive
c1ccc(CCNC2=NCCCS2)cc1	inconclusive [inhibitor, full curve, poor fit]
COc1ccc(-c2cc([C@H]3[C@@H]4C=CCC[C@@]4(C)C(=O)N3Cc3ccccc3)ccc2F)cc1OC	inconclusive [inhibitor, single point]
CCCCCn1c(Br)nc2c1c(=O)n(CC(N)=O)c(=O)n2C	inconclusive [activator, single point]
COC(=O)c1cc2ccccc2c(-c2c(OC)c(C(=O)OC)cc3ccccc23)c1OC	inconclusive [inhibitor, single point]
C=CCn1c(SCC(=O)Nc2ccc3c(c2)OCO3)nc2ccccc2c1=O	inconclusive [inhibitor, partial curve]
Cc1ccc(/C=N/NC(=O)Cc2c[nH]c3ccccc23)c(C)c1	inconclusive [inhibitor, partial curve]

SMILES	Potency
Cn1cccc1/C=C1\SC(=O)N(c2ccc(O)cc2)C1=O	inactive
CN(/N=C/c1cc(Cl)cc(Cl)c1O)c1c(Cl)cccc1[N+](=O)[O-]	inconclusive [activator, single point]
CCOC(=O)/C(=C\c1ccc(OC(F)F)cc1)C1=Nn2c(nnc2-c2ccc(Cl)cc2)SC1	active: 10 µM
NC(=O)NCc1ccccc1F	inactive
Cc1noc2ncnc(Sc3c(Cl)cccc3Cl)c12	inconclusive [inhibitor, single point]
O=C(N/N=C/c1ccco1)c1ccncc1	inactive
O=C(CCn1c(=O)[nH]c2ccccc2c1=O)N1CCN(c2cccc(C(F)(F)F)c2)CC1	inconclusive [inhibitor, single point]
CCOC(=O)C(C(=O)OCC)c1cc(Br)c2noc3c2c1C(=O)c1ccccc1-3	active: 3.98 µM
O=C(NC(=S)Nc1cccc(Cl)c1N1CCCCC1)c1cccs1	inconclusive [inhibitor, single point]
Cc1ccc(S(=O)(=O)CCC(=O)OCC(=O)Nc2cc(C)on2)cc1	inactive
Cc1ccc(-c2nnn(CCC(=O)N3CCCCC3C)n2)cc1 (configuration not stated)	inconclusive [inhibitor, single point]
C/C(N)=C(/C#N)C(=O)CSc1nc2ccccc2c(=O)n1CCCO	inactive
CCCCN(C)C(=O)c1nc2ccccn2c1CNCCCn1nnc2ccccc21	inactive
CC(C)N(c1ccccc1)c1ccc(NC(=O)C2CCCO2)cc1 (configuration not stated)	inactive
CCc1nc(SCC(=O)Nc2ccc3c(c2)OCCO3)c2oc3ccccc3c2n1	inconclusive [inhibitor, single point]
O=c1oc2ccccc2cc1-c1csc(Cc2nc(-c3ccc(Cl)cc3)cs2)n1	inactive
COC(=O)C(Cc1ccc(OC(=O)c2ccccc2Cl)cc1)N1Cc2ccccc2C1=O (configuration not stated)	inconclusive [inhibitor, partial curve]
COC(=O)CN(c1ccc(F)cc1)S(=O)(=O)c1ccc2c(c1)OCCO2	inconclusive [inhibitor, partial curve, poor fit]
N=C1SCC(=O)N1c1ncc(Cc2ccccc2Cl)s1	inconclusive [activator, single point]
Fc1ccc(-c2csc3ncnc(N4CCc5ccccc5C4)c23)cc1	inconclusive [inhibitor, single point]
Cc1cc(C(=O)c2ccccc2)c(NC(=O)CCl)s1	inconclusive [inhibitor, single point]
Cc1ccccc1N(CC(=O)N/N=C/c1cc(C)n(-c2ccccc2C)c1C)S(C)(=O)=O	inconclusive [activator, partial curve]
CCOc1cccc(C(=O)Nc2nnc(-c3cccs3)s2)c1	inconclusive [inhibitor, single point]
Cc1nn(-c2ccccc2Cl)c2sc(C(=O)Nc3nnc(C4CC4)s3)cc12	inconclusive [inhibitor, single point]

— PubChem BioAssay AID1461 (National Center for Advancing Translational Sciences (NCATS), 2008)
